The values below come from a collection of fitness landscapes (doi:10.1126/science.1257360).

B1: PhoQ; a variant is named by its letters at X, in order, P23837 (parent)
chain: MKKLLRLFFPLSLRVRFLLATAAVVLVLSLAYGMVALIGYSVSFDKTTFRLLRGESNLFYTLAKWENNKLHVELPENIDKQSPTMTLIYDENGQLLWAQRDVPWLMKMIQPDWLKSNGFHEIEADVNDTSLLLSGDHSIQQQLQEVREDDDDAEMTHSVAVNVYPATSRMPKLTIVVVDTIPVELKSSYMVWSWFIYVLSANLLLVIPLLWVAAWWSLRPIEALAKEVRELEEHNRELLNPATTRELTSLVRNLNRLLKSERERYDKYRTTLTDLTHSLKTPLXXLQXXLRSLRSEKMSVSDAEPVMLEQISRISQQIGYYLHRASMRGGTLLSRELHPVAPLLDNLTSALNKVYQRKGVNISLDISPEISFVGEQNDFVEVMGNVLDNACKYCLEFVEISARQTDEHLYIVVEDDGPGIPLSKREVIFDRGQRVDTLRPGQGVGLAVAREITEQYEGKIVAGESMLGGARMEVIFGRQHSAPKDE

This is one part of the list.

This experiment covers variants of B1. The experiment can be described thus: enrichment ratio after two sorts for PhoP signalling (ratio (wild type AVST 3.29)); higher = more functional. As to conditions: with PhoP (E. coli).
Consider WGPD, for which the enrichment ratio is no more than 0.25.

Consider FAII, for which the enrichment ratio was no more than 0.25.

Consider GCFP, for which the enrichment ratio is no more than 0.25.

Take AYTH: the enrichment ratio was no more than 0.25.

For AHYW, the enrichment ratio was no more than 0.25.

In the case of IGNW, the enrichment ratio is no more than 0.25.

For the variant YCHG, the enrichment ratio is no more than 0.25.

GLSY: the enrichment ratio is no more than 0.25.

For DKSN, the enrichment ratio was no more than 0.25.

YEIS: the enrichment ratio was found to be 0.338.

For TGSV, the enrichment ratio is 17.2.

Turning to GHGL, the enrichment ratio was no more than 0.25.

For HWPD, the enrichment ratio was no more than 0.25.

With KEAL, the enrichment ratio was no more than 0.25.

With FLHQ, the enrichment ratio was no more than 0.25.

Take MANP: the enrichment ratio is no more than 0.25.

For the variant HKDT, the enrichment ratio is no more than 0.25.

In the case of NPCD, the enrichment ratio was no more than 0.25.

As to HDLN, the enrichment ratio is no more than 0.25.

DFRD: the enrichment ratio was no more than 0.25.

As to KHIQ, the enrichment ratio is no more than 0.25.

Take MNQW: the enrichment ratio is no more than 0.25.

Take LVCD: the enrichment ratio was no more than 0.25.

With LISG, the enrichment ratio was no more than 0.25.

With HCLG, the enrichment ratio is no more than 0.25.

In the case of YWGD, the enrichment ratio was no more than 0.25.

For the variant YYTT, the enrichment ratio is no more than 0.25.

As to HPNL, the enrichment ratio was no more than 0.25.

As for GMRK, the enrichment ratio is no more than 0.25.

On to IGQI, for which the enrichment ratio was no more than 0.25.

Turning to SCSD, the enrichment ratio is no more than 0.25.

Turning to EAIP, the enrichment ratio was no more than 0.25.

Take IVIY: the enrichment ratio is no more than 0.25.

In the case of MENT, the enrichment ratio was no more than 0.25.

Regarding EEPS, the enrichment ratio is no more than 0.25.

Regarding NTCT, the enrichment ratio was no more than 0.25.

For the variant INEG, the enrichment ratio is no more than 0.25.

For the variant HTPS, the enrichment ratio was no more than 0.25.

On to NQEI, for which the enrichment ratio is no more than 0.25.

With ETLY, the enrichment ratio is no more than 0.25.

GAHH: the enrichment ratio is no more than 0.25.

NAYH: the enrichment ratio is no more than 0.25.

In the case of HVKG, the enrichment ratio is no more than 0.25.

Consider AYHM, for which the enrichment ratio is no more than 0.25.

Turning to WPHV, the enrichment ratio is no more than 0.25.

As to DMTC, the enrichment ratio was no more than 0.25.

Consider KFWR, for which the enrichment ratio is 1.07.

In the case of QLPD, the enrichment ratio is no more than 0.25.

With SGSI, the enrichment ratio worked out at 15.9.

Regarding IDCE, the enrichment ratio was no more than 0.25.

For the variant LRLC, the enrichment ratio is no more than 0.25.

With ACCD, the enrichment ratio was no more than 0.25.

For ELVT, the enrichment ratio was no more than 0.25.

On to RQHG, for which the enrichment ratio is no more than 0.25.

On to DPKD, for which the enrichment ratio was no more than 0.25.

In the case of QCCM, the enrichment ratio was no more than 0.25.

In the case of PKQA, the enrichment ratio was no more than 0.25.

For GRDN, the enrichment ratio is no more than 0.25.

Regarding DKHE, the enrichment ratio was no more than 0.25.

As for ISWI, the enrichment ratio is no more than 0.25.

Regarding NHNY, the enrichment ratio was no more than 0.25.

With RFFK, the enrichment ratio was no more than 0.25.

With QIIC, the enrichment ratio is no more than 0.25.

In the case of YDIS, the enrichment ratio came out at 1.07.

Turning to KNSL, the enrichment ratio was no more than 0.25.

For the variant QYSA, the enrichment ratio is no more than 0.25.

As for WDNT, the enrichment ratio was no more than 0.25.

ILHT: the enrichment ratio was no more than 0.25.

In the case of AWCR, the enrichment ratio is no more than 0.25.

Take ADWI: the enrichment ratio is no more than 0.25.

YIIK: the enrichment ratio is no more than 0.25.

In the case of WYSR, the enrichment ratio is no more than 0.25.

Turning to TRIT, the enrichment ratio is no more than 0.25.

Take RRKP: the enrichment ratio was no more than 0.25.

On to HYAH, for which the enrichment ratio was no more than 0.25.

With VGPK, the enrichment ratio was no more than 0.25.

With AGFQ, the enrichment ratio was no more than 0.25.

As to QENM, the enrichment ratio is no more than 0.25.

Take EAEL: the enrichment ratio is no more than 0.25.

With QCTI, the enrichment ratio was no more than 0.25.

Regarding AIYM, the enrichment ratio is no more than 0.25.

GYES: the enrichment ratio was no more than 0.25.

Consider PRNQ, for which the enrichment ratio was no more than 0.25.

In the case of AICY, the enrichment ratio was 10.5.

For the variant ECHP, the enrichment ratio was no more than 0.25.

For KDCN, the enrichment ratio was no more than 0.25.

For EVGH, the enrichment ratio was no more than 0.25.

As for IDQP, the enrichment ratio was no more than 0.25.

Consider NLVL, for which the enrichment ratio was no more than 0.25.

Turning to QFTC, the enrichment ratio was no more than 0.25.

Consider RDPL, for which the enrichment ratio was no more than 0.25.

With ENSK, the enrichment ratio was no more than 0.25.

With INAH, the enrichment ratio was no more than 0.25.

Take ERNH: the enrichment ratio was no more than 0.25.

Turning to LLAC, the enrichment ratio was no more than 0.25.

With YDTC, the enrichment ratio was no more than 0.25.

Consider MHAL, for which the enrichment ratio is no more than 0.25.

Regarding PGID, the enrichment ratio is no more than 0.25.

Take GHDW: the enrichment ratio was no more than 0.25.

On to GKGF, for which the enrichment ratio is no more than 0.25.

As for MVFE, the enrichment ratio was no more than 0.25.

Regarding AFIW, the enrichment ratio is no more than 0.25.

For the variant YYTK, the enrichment ratio was no more than 0.25.

As for VILY, the enrichment ratio was no more than 0.25.

Take EEIA: the enrichment ratio was no more than 0.25.

As to YSLS, the enrichment ratio amounted to 7.49.

Consider ACGG, for which the enrichment ratio is 4.87.

On to LNTD, for which the enrichment ratio is no more than 0.25.

Consider DWMF, for which the enrichment ratio is no more than 0.25.

As for PPNY, the enrichment ratio was no more than 0.25.

For TSIF, the enrichment ratio was 0.479.

PTHY: the enrichment ratio is no more than 0.25.

With ERIN, the enrichment ratio is no more than 0.25.

In the case of RDEP, the enrichment ratio was no more than 0.25.

Consider FFFR, for which the enrichment ratio was no more than 0.25.

In the case of FMIA, the enrichment ratio is no more than 0.25.

As for FMTA, the enrichment ratio was no more than 0.25.

In the case of HQFP, the enrichment ratio is no more than 0.25.

On to QDNS, for which the enrichment ratio is no more than 0.25.

For WIHY, the enrichment ratio was no more than 0.25.

Turning to KLQW, the enrichment ratio was no more than 0.25.

As for IVRH, the enrichment ratio was no more than 0.25.

Turning to TKVQ, the enrichment ratio was 11.7.

With YAWR, the enrichment ratio is no more than 0.25.

Consider ARSK, for which the enrichment ratio is no more than 0.25.

Turning to QFQK, the enrichment ratio is no more than 0.25.

For the variant RWFA, the enrichment ratio was no more than 0.25.

Turning to EETF, the enrichment ratio is no more than 0.25.

For the variant SCNN, the enrichment ratio amounted to 0.322.

Turning to VRKS, the enrichment ratio is no more than 0.25.

Consider GGQL, for which the enrichment ratio was no more than 0.25.

For the variant RSLG, the enrichment ratio is no more than 0.25.

Turning to SGDF, the enrichment ratio is no more than 0.25.

With QTCM, the enrichment ratio is no more than 0.25.

Take GPRH: the enrichment ratio was no more than 0.25.

As to DIFS, the enrichment ratio was no more than 0.25.

Take WGFG: the enrichment ratio is no more than 0.25.

Consider SPGQ, for which the enrichment ratio was no more than 0.25.

Take WSTL: the enrichment ratio was no more than 0.25.

For the variant NFRG, the enrichment ratio was no more than 0.25.

On to SSKV, for which the enrichment ratio was no more than 0.25.

As to QTLS, the enrichment ratio turned out to be 0.448.

Take YNQW: the enrichment ratio was no more than 0.25.

For the variant ERHL, the enrichment ratio is no more than 0.25.

On to PLVN, for which the enrichment ratio is no more than 0.25.

For the variant WKKF, the enrichment ratio was no more than 0.25.

For PTSD, the enrichment ratio amounted to 3.64.

For MAPW, the enrichment ratio was no more than 0.25.

For LIWP, the enrichment ratio was no more than 0.25.

Consider VASE, for which the enrichment ratio was no more than 0.25.

Consider NWKW, for which the enrichment ratio was no more than 0.25.

Take SSTQ: the enrichment ratio is 9.81.

In the case of HYKC, the enrichment ratio was no more than 0.25.
